Measurements reported in PubChem BioAssay AID1508642 (National Center for Advancing Translational Sciences (NCATS), 2021).
Among all 43,000 compounds or so, about 200 (0.47%) were called active. About 12% were inconclusive and are not listed. Calls follow the shape of the dose curve; as a rule, active = well fitted cell-killing curve with a large enough effect; inconclusive = small, poorly fitted or top-dose-only effect, or effect the other way; inactive = flat fitted curve, though single readings scatter. This is one part of the list.

experiment: Cell viability qHTS assay in S16 Pmp22-F2sN cells; details: S16 Pmp22-F2sN Schwann cells viability, CellTiter-Glo, 24 h; series mostly up to 57.5 µM; activity change, negative = cytotoxicity: at the top concentration; also: nearly all actives have a fitted effect of over 65% in size
Procedure, shortened: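 Viability was measured by CellTiter-Glo luminescence (15 min, room temperature). This followed 24 h at 37 °C of compound exposure (23 nL pin transfer) in S16 Pmp22-F2sN Schwann cells, 500-1,000 per well.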
% is scaled to controls: 0 for no effect and ±100 for the full control effect.

Row | Structure (SMILES) | activity change, negative = cytotoxicity
1 | CCCCc1nn2c(=O)cc(COC(=O)c3ccc(NC(=O)c4ccccc4C)cc3)nc2s1 | inactive: 19.8%
2 | Cc1ccc(CNS(=O)(=O)c2ccc3[nH]c4c(c3c2)CCCC4)cc1 | inactive: -12.6%
3 | Cc1cc(F)ccc1NS(=O)(=O)c1ccc(-n2cccn2)cc1 | inactive: -14.3%
4 | Cc1cc(C)n(CCc2nc3c4ccccc4nc(N4CCN(c5ccccc5)CC4)n3n2)n1 | inactive: 12.2%
5 | O=C(CCn1cnnn1)Nc1ccc(F)cc1 | inactive: -3.22%
6 | Cc1ccc(NC(=O)CSc2ccc(-c3cccs3)nn2)cc1Cl | inactive: 21.4%
7 | CN(c1ccccc1)S(=O)(=O)c1ccc(NC(=O)c2cc(=O)c3ccccc3o2)cc1 | inactive: 9.57%
8 | COCC(=O)NCc1nc2cccnc2n1Cc1ccc(F)cc1 | inactive: 0.4%
9 | Cc1noc(-c2ccc(N3CCCCC3)c([N+](=O)[O-])c2)n1 | inactive: -21.6%
10 | Cc1ccccc1CCNC(=O)c1ccc2c(c1)nc1n2CCC(C)C1 (configuration not stated) | inactive: 22.2%
11 | Cc1ccc(Cn2c(CNS(=O)(=O)c3ccc(F)c(Cl)c3)nc3cccnc32)cc1 | inactive: -28.4%
12 | COc1ccc(-n2ncc(C(=O)NCCc3ccsc3)c2C2CCN(C(=O)OC(C)(C)C)CC2)cc1 | inactive: -20.7%
13 | COc1cc(C2C(C(=O)Nc3ccccc3C)=C(C)Nc3ncnn32)ccc1OCC(N)=O (configuration not stated) | inactive: 6.89%
14 | O=C(NCC(c1ccc2c(c1)OCO2)N1CCOCC1)c1cccc(Cl)c1 (configuration not stated) | inactive: -9.3%
15 | CCOc1ccccc1NC(=O)C1CCN(S(=O)(=O)c2ccc3c(c2)CC(C)N3C(C)=O)CC1 (configuration not stated) | inactive: -17%
16 | COc1ccc2c(C)cc(SCC(=O)Nc3nsc(-c4ccccc4C)n3)nc2c1 | inactive: 3.15%
17 | CCOC(=O)c1ccccc1NC(=O)Cn1c(=O)n(-c2cccc(C)c2)c(=O)c2c1c1cc(C)ccc1n2C | inactive: 0.401%
18 | CCOc1ccc(Cn2c(CNS(=O)(=O)c3ccc(Cl)s3)nc3cccnc32)cc1 | inactive: 0.893%
19 | COc1cccc(N2CCN(S(=O)(=O)c3ccc(-n4cnnn4)cc3)CC2)c1 | inactive: -1.04%
20 | O=C(NCc1ccc(Cl)cc1)C(=O)NCC(c1cccs1)S(=O)(=O)c1cccs1 (configuration not stated) | inactive: 15%
21 | O=C(Nc1cc(C(F)(F)F)ccc1Cl)c1nc2ccccc2nc1N1CCCCC1 | inactive: -0.792%

Row | Structure (SMILES) | activity change, negative = cytotoxicity
22 | COC(=O)c1cccnc1-n1c(=O)c2cccnc2n(CC(=O)Nc2ccccc2F)c1=O | inactive: -6.62%
23 | CCc1ccccc1NC(=O)c1sc2nc3c(cc2c1N)CN(Cc1ccccc1)CC3 | inactive: -26.4%
24 | CCOC(=O)c1c(C)oc2nc(C)nc(NCc3ccc(OC)cc3OC)c12 | inactive: 4.43%
25 | O=C(CSc1nncn2c1cc1sccc12)Nc1ccc(Br)cc1F | inactive: 0.28%
26 | Cc1cc(C)cc(NC(=O)C(=O)NCC(c2cccnc2)N2CCc3ccccc3C2)c1 (configuration not stated) | inactive: 0.637%
27 | Clc1cccc(-n2ncc3c(N4CCC(Cc5ccccc5)CC4)ncnc32)c1 | inactive: -2.07%
28 | CCCCNC(=O)C1CCC(Cn2c(=O)c3sccc3n(CC(=O)N3CCCC3)c2=O)CC1 (configuration not stated) | inactive: 5.41%
29 | CCc1ccc(NC(=O)CCn2nc(C)c(S(=O)(=O)N3CCCCC3)c2C)cc1 | inactive: -2.33%
30 | O=C(NCCc1ccccc1)c1sc2ncccc2c1-n1cccc1 | inactive: -19.6%
31 | CCCc1cnc2c(c1SCC(=O)N1CCC(C)CC1)c(=O)n(C)c(=O)n2C | inactive: -14%
32 | CCC1CCCCN1C(=O)Cn1c(=O)oc2cc(S(=O)(=O)N3CCCCC3)ccc21 (configuration not stated) | inactive: -7.89%
33 | NC(=O)CSc1oc(-c2ccco2)nc1S(=O)(=O)c1ccc(Cl)cc1 | inactive: -2.24%
34 | Cc1ccc(NC(=O)c2cc3cc(C)ccc3n2C)cc1 | inactive: 2.88%
35 | CCOC(=O)c1ccc(NC(=O)Cn2c(=O)cc(C)c3c(C)nn(-c4cccc(F)c4)c32)cc1 | inactive: -0.997%
36 | O=C(Nc1nc2n(n1)C(c1ccc(F)cc1)C=C(c1ccccc1)N2)c1ccc(Cl)cc1 (configuration not stated) | inactive: -2.43%
37 | Cc1ccc(NC(=O)C(Cc2ccccc2)NS(=O)(=O)c2ccc3c(c2)oc(=O)n3C)cc1F (configuration not stated) | inactive: -2.11%
38 | COc1cccc2c1cc1c(=O)n(CC(=O)NC3CCCCC3)nc(C)n12 | inactive: 11.7%
39 | COc1cc(C(=O)N2CCN(c3ccc(Nc4ccc(C)cc4)nn3)CC2)cc(OC)c1OC | inactive: -1.17%
40 | Cc1ccc(C(=O)Nc2cccc(OCc3cc(=O)n4c5c(sc4n3)CCCC5)c2)cc1 | inactive: 1.22%
41 | COC(=O)Cn1nc(C)c2c(C)n(-c3ccccc3)nc2c1=O | inactive: 16.9%
42 | COCCCNC(=O)CCC(=O)N1Cc2cccc(OC)c2Oc2ncccc21 | inactive: 0.701%

Row | Structure (SMILES) | activity change, negative = cytotoxicity
43 | CNC(=O)C1CCC(Cn2c(=O)c3sccc3n(Cc3ccc(F)cc3)c2=O)CC1 (configuration not stated) | inactive: -1.64%
44 | CC1(C(=O)Nc2cccc(Br)c2)Cc2ccccc2C(=O)O1 (configuration not stated) | inactive: -7.32%
45 | CC(=O)N1CCCc2cc(S(=O)(=O)N3CCC(C(=O)NC4CCC(C)CC4)CC3)ccc21 (configuration not stated) | inactive: -1.06%
46 | CCc1ccc(NC(=O)CSc2nccn2-c2ccc(OC)cc2)cc1 | inactive: -2.26%
47 | Cc1ccccc1OCCSc1nc2ccc(NC(=O)c3ccccc3)cc2s1 | inactive: 2.47%
48 | CCCc1cc(=O)oc2c3c(ccc12)OCN(Cc1ccc(OC)cc1)C3 | inactive: 3.03%
49 | CCn1c(C(=O)NCc2ccccc2C)cc2oc3ccccc3c21 | inactive: -10.2%
50 | O=C(Nc1cccc(C(=O)OCc2cc(=O)n3nc(C4CC4)sc3n2)c1)c1cccc(F)c1 | inactive: 2.82%
51 | CCOC(=O)CSc1ccc2nnc(CCNS(=O)(=O)c3ccccc3)n2n1 | inactive: 5.29%
52 | Cc1ccc(CCNC(=O)C(NS(=O)(=O)c2ccc3c(c2)oc(=O)n3C)C(C)C)cc1 (configuration not stated) | inactive: -4.85%
53 | Cc1ccc(N(CC(=O)N2CCN(c3ccccc3F)CC2)S(=O)(=O)c2c(C)noc2C)cc1 | inactive: 2.98%
54 | COc1ccc(NC(=O)CSc2nncn3c2cc2oc(C)cc23)cc1OC | inactive: 14.2%
55 | Cc1ccc(N(CC(=O)Nc2cccc(F)c2)S(=O)(=O)c2cccs2)cc1 | inactive: 10.3%
56 | COc1ccc(Cn2ccn(Cc3cccc(C)c3)c(=O)c2=O)cc1 | inactive: 0.627%
57 | COc1cc2c(cc1OC)C(COc1ccc3c(C)cc(=O)oc3c1)N(C(=O)c1cccc(C)c1)CC2 (configuration not stated) | inactive: -9.4%
58 | CCOc1ccc(-n2c(SCC(=O)NCC3CCCO3)nc3c([nH]c4ccccc43)c2=O)cc1 (configuration not stated) | inactive: 4.98%
59 | O=C(NCCc1ccccc1)c1ccc2c(c1)N(Cc1c(F)cccc1Cl)C(=O)CS2 | inactive: 8.65%
60 | Cn1c(=O)c(=O)n(C)c2cc(S(=O)(=O)N3CCCC3C(=O)Nc3ccccc3F)ccc21 (configuration not stated) | inactive: 14.8%
61 | Cc1ccc(NC(=O)c2oc3ccc(S(=O)(=O)N4CCCCCC4)cc3c2C)cc1Cl | inactive: -10.4%
62 | CC(C)CSc1nnc(-c2ccccc2)c(-c2ccccc2)n1 | inactive: -2.69%
